In all, about 310,000 compounds went through this assay and about 14,000 (4.5%) showed an effect of 50% or more. The effect is printed as a negative number. The list shows a part of the results.
Biological target: human ether-à-go-go-related gene (hERG) potassium channel (human, UniProt Q12809)
Assay: primary screen, population patch clamp on CHO cells stably expressing hERG
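Note: peak tail current of the secondary pulse compared with the same well before compound.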

Sequence of human ether-à-go-go-related gene (hERG) potassium channel (Q12809 whole entry, looked up): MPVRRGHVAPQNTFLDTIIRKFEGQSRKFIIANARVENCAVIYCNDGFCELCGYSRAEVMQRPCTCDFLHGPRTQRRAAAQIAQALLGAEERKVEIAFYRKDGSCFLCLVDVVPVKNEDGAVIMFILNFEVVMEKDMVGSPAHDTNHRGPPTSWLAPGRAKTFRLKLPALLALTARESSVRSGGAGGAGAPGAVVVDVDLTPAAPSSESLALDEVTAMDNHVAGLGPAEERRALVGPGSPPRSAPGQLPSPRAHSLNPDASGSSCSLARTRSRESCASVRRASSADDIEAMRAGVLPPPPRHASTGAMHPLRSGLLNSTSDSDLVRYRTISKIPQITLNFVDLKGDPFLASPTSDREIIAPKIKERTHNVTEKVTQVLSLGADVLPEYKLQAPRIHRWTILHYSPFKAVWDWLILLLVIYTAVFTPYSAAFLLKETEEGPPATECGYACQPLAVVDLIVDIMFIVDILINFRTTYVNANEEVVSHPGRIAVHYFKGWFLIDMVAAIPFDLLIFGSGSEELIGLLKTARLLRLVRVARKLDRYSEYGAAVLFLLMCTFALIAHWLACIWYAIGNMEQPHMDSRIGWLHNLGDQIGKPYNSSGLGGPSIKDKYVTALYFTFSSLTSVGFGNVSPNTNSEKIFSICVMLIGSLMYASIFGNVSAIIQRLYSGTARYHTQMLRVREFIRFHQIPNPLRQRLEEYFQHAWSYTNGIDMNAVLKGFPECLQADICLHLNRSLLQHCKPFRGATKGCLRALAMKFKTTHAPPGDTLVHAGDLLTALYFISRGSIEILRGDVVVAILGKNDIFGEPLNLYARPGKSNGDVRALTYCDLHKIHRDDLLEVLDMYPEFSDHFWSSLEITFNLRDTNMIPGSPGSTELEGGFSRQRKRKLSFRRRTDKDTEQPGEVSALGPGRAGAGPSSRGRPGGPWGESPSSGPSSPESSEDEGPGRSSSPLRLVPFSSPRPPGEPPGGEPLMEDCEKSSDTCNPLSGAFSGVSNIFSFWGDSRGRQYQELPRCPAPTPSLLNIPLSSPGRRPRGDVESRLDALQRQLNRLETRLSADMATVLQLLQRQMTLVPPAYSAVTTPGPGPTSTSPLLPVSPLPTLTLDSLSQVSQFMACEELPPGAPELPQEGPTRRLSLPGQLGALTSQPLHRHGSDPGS

Compound	hERG current change (%, negative = inhibition) at 10uM
Cc1ccc(C(=O)N[C@H](C(=O)OCC(=O)NC2CCS(=O)(=O)C2)C(C)C)cc1 (stereo partly shown)	11.6%
O=C(CNC(=O)c1ccccc1F)Nc1ccncc1	22.8%
COc1cc(C(=O)NCc2ccc(-n3cccc3)cc2)cc(OC)c1OC	21.3%
CCN1CCN(C(=S)c2ccc(Cl)c(Cl)c2)CC1	-33.1%
CCCc1nnc(NC(=O)CCC(=O)NCCc2ccc(OC)c(OC)c2)s1	-7.94%
O=C(Cn1nc(-c2ccc(Cl)cc2)ccc1=O)NCC1CCCO1 (stereo not shown)	-14.9%
COc1cc(C(=O)NC(=S)Nc2nc(-c3ccc(F)cc3)cs2)cc(OC)c1OC	12.5%
O=C(c1ccco1)N1CCN(C(=O)c2ccccc2Oc2ccccc2)CC1	-30.3%
Cc1cc2ncc(-c3ncc(C(F)(F)F)cc3Cl)cn2n1	-6.94%
N#CCCSc1ncnc2c1oc1ccccc12	1.66%
COc1ccc(NC(=O)N[C@@H](Cc2ccccc2)C(=O)NN)cc1	4.45%
CCN(CC(=O)Nc1ccccc1OC)C(=O)CC1CC2CCC1C2 (stereo not shown)	-10.6%
COC(=O)c1ccc(NC(=O)c2ccccc2)o1	5.33%
C=CCNC(=O)NC(=O)COC(=O)[C@H](C)NS(=O)(=O)c1c(C)c(C)cc(C)c1C	-11.8%
CCOc1ccc(Br)cc1S(=O)(=O)Nc1ncn[nH]1	26%
Cc1ccc(S(=O)(=O)N2CCCC(CCC(=O)NCc3ccccc3F)C2)s1 (stereo not shown)	-50.7%
COc1ccccc1NC(=O)c1nn(-c2ccc(OC(F)(F)F)cc2)ccc1=O	11.5%
COc1cccc(NC(=O)N[C@@H](Cc2ccccc2)C(=O)O)c1	14%
Cc1ccc(C(=O)NC(=S)Nc2cc(-c3nc4ccccc4s3)ccc2C)cc1	12.7%
Cc1cccc(NC(=O)c2nc[nH]c2C(=O)N2CCN(C(=O)OC(C)(C)C)CC2)c1	-19.3%
O=C(O)C(Cc1c[nH]c2ccccc12)NS(=O)(=O)c1ccc(Cl)c(C(F)(F)F)c1 (stereo not shown)	10%
Cc1csc(Cn2c(CN(C)C)nc3ccccc3c2=O)n1	-12.3%
Cc1ccc(-n2c(C)csc2=N)cc1	5.7%
COc1ccc(S(=O)(=O)N2CCOCC2)cc1NC(=O)CN1CCC(Cc2ccccc2)CC1	-3.87%
CN(C)S(=O)(=O)c1ccc(C(=O)NCc2ccccn2)cc1	12%
